Assay results reported in the supplement of paper PMC8047034.
Counter-ions that a name gives are not always drawn. The list shows a part of the results. Many values rest on one well or one pass, so single values are uncertain.

These compounds were tested on OVCAR4 (assay: log2 surviving fraction (library drug vs vehicle, or drug + carboplatin vs carboplatin alone; relative to plate median); ovarian cancer lines: OVCAR4 is platinum-sensitive and Ov4Carbo platinum-resistant; higher = more cell survival). Conditions: library drug concentration 10 µM; 7 days; carboplatin co-treatment 0 µM.

Structure (SMILES) | log2 surviving fraction
CCCSc1nc(N[C@@H]2C[C@H]2c2ccc(F)c(F)c2)c2nnn([C@@H]3C[C@H](OCCO)[C@@H](O)[C@H]3O)c2n1 [Ticagrelor] | -0.754
Cn1ccnc1S [Methimazole (Tapazole, Northyx)] | -3.38
C=C1CC[C@H](O)C/C1=C/C=C1\CCC[C@]2(C)[C@@H]([C@H](C)CCCC(C)C)CC[C@@H]12 [Vitamin D3 (Cholecalciferol)] | -0.143
CCn1nc(C(=O)O)c(=O)c2cc3c(cc21)OCO3 [Cinoxacin] | 0.41
Nc1nc2[nH]cnc2c(=S)[nH]1 [Thioguanine] | -5.44
O=C(O)c1cn(-c2ccc(F)cc2)c2cc(N3CCNCC3)c(F)cc2c1=O [Sarafloxacin HCl] | -0.179
N#CC[C@H](C1CCCC1)n1cc(-c2ncnc3[nH]ccc23)cn1 | 0.551
O=C(O)c1cc(=O)c2c(OCC(O)COc3cccc4oc(C(=O)O)cc(=O)c34)cccc2o1 [Disodium Cromoglycate] | 0.867
Nc1ncnc2c1ncn2[C@@H]1O[C@H](CO)[C@@H](O)[C@H]1O [Adenosine (Adenocard)] | 1.87
COC1=C(OC)C(=O)C(CCCCCCCCCCO)=C(C)C1=O [Idebenone] | -0.997
N[C@@H]1CONC1=O [D-Cycloserine] | 0.0441
Cc1cc2c(s1)Nc1ccccc1N=C2N1CCN(C)CC1 [Olanzapine (Zyprexa)] | 0.35
O=C1Cc2cc(CCN3CCN(c4nsc5ccccc45)CC3)c(Cl)cc2N1 [Ziprasidone hydrochloride] | -0.112
COCCc1ccc(OCC(O)CNC(C)C)cc1 (stereo not given) [Metoprolol tartrate] | 0.371
O=P(O)(O)C(O)(Cc1cccnc1)P(=O)(O)O [Risedronic acid (Actonel)] | -0.221
O=NN(CCCl)C(=O)NC1CCCCC1 [Lomustine (CeeNU)] | 0.567
CC(C)(C)CC(C)(C)c1ccc(O)c(Cc2ccc(Cl)cc2Cl)c1 [Clofoctol] | -7.75
CN(C)C(=N)NC(=N)N [Metformin hydrochloride (Glucophage)] | -0.193
COc1ccc(C(CN(C)C)C2(O)CCCCC2)cc1 (stereo not given) [Venlafaxine] | -3.37
O=NO [Sodium nitrite] | -0.701

Structure (SMILES) | log2 surviving fraction
C[N+]1(C)CCC(=C(c2ccccc2)c2ccccc2)CC1 [Diphemanil methylsulfate] | -0.0271
CC(=O)OCC[N+](C)(C)C [Acetylcholine chloride] | 0.0558
CCN(CC)C(=O)C1(c2ccccc2)CC1CN (stereo not given) [Milnacipran HCl] | 0.115
O=C(O)c1cc(=O)c2ccccc2o1 [Chromocarb] | -0.423
CC1=C(C(=O)O)N2C(=O)[C@@H](NC(=O)[C@H](N)c3ccccc3)[C@H]2SC1 [Cephalexin (Cefalexin)] | 1.48
CN(C)CCC(c1ccc(Br)cc1)c1ccccn1 (stereo not given) [Brompheniramine] | -0.436
COc1cc2nc(N(C)CCCNC(=O)C3CCCO3)nc(N)c2cc1OC (stereo not given) [Alfuzosin hydrochloride (Uroxatral)] | 0.473
Clc1ccc(C(Cn2ccnc2)OCc2c(Cl)cccc2Cl)c(Cl)c1 (stereo not given) [Isoconazole nitrate (Travogen)] | -2.01
Cc1cccc(C(C)c2c[nH]cn2)c1C (stereo not given) [Medetomidine HCl] | 0.691
CC1(C)O[C@@H]2C[C@H]3[C@@H]4CCC5=CC(=O)C=C[C@]5(C)[C@H]4[C@@H](O)C[C@]3(C)[C@]2(C(=O)CO)O1 [Desonide] | -2.77
Clc1ccc2c(c1)CCc1cccnc1C2=C1CCNCC1 [Desloratadine] | -5.75
Cc1cccc([C@H](C)c2c[nH]cn2)c1C [Dexmedetomidine HCl (Precedex)] | 0.0439
O=C(O)Cc1ccccc1Nc1c(Cl)cccc1Cl [Diclofenac] | 0.000587
CC1(C)S[C@@H]2[C@H](NC(=O)[C@H](NC(=O)N3CCN(S(C)(=O)=O)C3=O)c3ccccc3)C(=O)N2[C@H]1C(=O)O [Mezlocillin Sodium] | 0.00397
CN1C2CCCC1CC(NC(=O)c1nn(C)c3ccccc13)C2 (stereo not given) [Granisetron HCl] | 0.247
CC(=O)OCC(=O)[C@@]12OC(C)(C)O[C@@H]1C[C@H]1[C@@H]3C[C@H](F)C4=CC(=O)C=C[C@]4(C)[C@@]3(F)[C@@H](O)C[C@@]12C [Fluocinonide (Vanos)] | -0.229
NNc1nncc2ccccc12 [Hydralazine hydrochloride] | 0.202
O=c1[nH]cnc2c1ncn2[C@H]1CC[C@@H](CO)O1 [Didanosine (Videx)] | -3.22
C[N+](C)(C)CCCCCC[N+](C)(C)C [Hexamethonium bromide] | 0.424
CNCCc1ccccn1 [Betahistine 2HCl] | 0.243

Same assay, conditions: library drug concentration 10 µM; 7 days; carboplatin co-treatment 5 µM

Structure (SMILES) | log2 surviving fraction
CCCSc1nc(N[C@@H]2C[C@H]2c2ccc(F)c(F)c2)c2nnn([C@@H]3C[C@H](OCCO)[C@@H](O)[C@H]3O)c2n1 [Ticagrelor] | -0.156
Cn1ccnc1S [Methimazole (Tapazole, Northyx)] | 2.28
C=C1CC[C@H](O)C/C1=C/C=C1\CCC[C@]2(C)[C@@H]([C@H](C)CCCC(C)C)CC[C@@H]12 [Vitamin D3 (Cholecalciferol)] | -0.401
CCn1nc(C(=O)O)c(=O)c2cc3c(cc21)OCO3 [Cinoxacin] | 0.328
Nc1nc2[nH]cnc2c(=S)[nH]1 [Thioguanine] | -4.63
O=C(O)c1cn(-c2ccc(F)cc2)c2cc(N3CCNCC3)c(F)cc2c1=O [Sarafloxacin HCl] | -0.77
N#CC[C@H](C1CCCC1)n1cc(-c2ncnc3[nH]ccc23)cn1 | -1.07
O=C(O)c1cc(=O)c2c(OCC(O)COc3cccc4oc(C(=O)O)cc(=O)c34)cccc2o1 [Disodium Cromoglycate] | 1.27
Nc1ncnc2c1ncn2[C@@H]1O[C@H](CO)[C@@H](O)[C@H]1O [Adenosine (Adenocard)] | 1.47
COC1=C(OC)C(=O)C(CCCCCCCCCCO)=C(C)C1=O [Idebenone] | -0.447
N[C@@H]1CONC1=O [D-Cycloserine] | 0.921
Cc1cc2c(s1)Nc1ccccc1N=C2N1CCN(C)CC1 [Olanzapine (Zyprexa)] | -0.339
O=C1Cc2cc(CCN3CCN(c4nsc5ccccc45)CC3)c(Cl)cc2N1 [Ziprasidone hydrochloride] | -0.215
COCCc1ccc(OCC(O)CNC(C)C)cc1 (stereo not given) [Metoprolol tartrate] | 0.518
O=P(O)(O)C(O)(Cc1cccnc1)P(=O)(O)O [Risedronic acid (Actonel)] | -1.16
O=NN(CCCl)C(=O)NC1CCCCC1 [Lomustine (CeeNU)] | 0.61
CC(C)(C)CC(C)(C)c1ccc(O)c(Cc2ccc(Cl)cc2Cl)c1 [Clofoctol] | -5.56
CN(C)C(=N)NC(=N)N [Metformin hydrochloride (Glucophage)] | 0.276
COc1ccc(C(CN(C)C)C2(O)CCCCC2)cc1 (stereo not given) [Venlafaxine] | -0.301
O=NO [Sodium nitrite] | -0.258

Structure (SMILES) | log2 surviving fraction
C[N+]1(C)CCC(=C(c2ccccc2)c2ccccc2)CC1 [Diphemanil methylsulfate] | -0.189
CC(=O)OCC[N+](C)(C)C [Acetylcholine chloride] | 0.621
CCN(CC)C(=O)C1(c2ccccc2)CC1CN (stereo not given) [Milnacipran HCl] | 0.296
O=C(O)c1cc(=O)c2ccccc2o1 [Chromocarb] | 0.48
CC1=C(C(=O)O)N2C(=O)[C@@H](NC(=O)[C@H](N)c3ccccc3)[C@H]2SC1 [Cephalexin (Cefalexin)] | 0.732
CN(C)CCC(c1ccc(Br)cc1)c1ccccn1 (stereo not given) [Brompheniramine] | 0.0503
COc1cc2nc(N(C)CCCNC(=O)C3CCCO3)nc(N)c2cc1OC (stereo not given) [Alfuzosin hydrochloride (Uroxatral)] | -1.96
Clc1ccc(C(Cn2ccnc2)OCc2c(Cl)cccc2Cl)c(Cl)c1 (stereo not given) [Isoconazole nitrate (Travogen)] | -1.51
Cc1cccc(C(C)c2c[nH]cn2)c1C (stereo not given) [Medetomidine HCl] | 0.512
CC1(C)O[C@@H]2C[C@H]3[C@@H]4CCC5=CC(=O)C=C[C@]5(C)[C@H]4[C@@H](O)C[C@]3(C)[C@]2(C(=O)CO)O1 [Desonide] | -0.274
Clc1ccc2c(c1)CCc1cccnc1C2=C1CCNCC1 [Desloratadine] | -4.57
Cc1cccc([C@H](C)c2c[nH]cn2)c1C [Dexmedetomidine HCl (Precedex)] | -0.45
O=C(O)Cc1ccccc1Nc1c(Cl)cccc1Cl [Diclofenac] | -0.197
CC1(C)S[C@@H]2[C@H](NC(=O)[C@H](NC(=O)N3CCN(S(C)(=O)=O)C3=O)c3ccccc3)C(=O)N2[C@H]1C(=O)O [Mezlocillin Sodium] | -0.125
CN1C2CCCC1CC(NC(=O)c1nn(C)c3ccccc13)C2 (stereo not given) [Granisetron HCl] | 0.609
CC(=O)OCC(=O)[C@@]12OC(C)(C)O[C@@H]1C[C@H]1[C@@H]3C[C@H](F)C4=CC(=O)C=C[C@]4(C)[C@@]3(F)[C@@H](O)C[C@@]12C [Fluocinonide (Vanos)] | 0.0201
NNc1nncc2ccccc12 [Hydralazine hydrochloride] | 0.444
O=c1[nH]cnc2c1ncn2[C@H]1CC[C@@H](CO)O1 [Didanosine (Videx)] | -2.01
C[N+](C)(C)CCCCCC[N+](C)(C)C [Hexamethonium bromide] | 0.156
CNCCc1ccccn1 [Betahistine 2HCl] | -0.031
